Results taken from PubChem BioAssay AID1347073 (National Center for Advancing Translational Sciences (NCATS), 2019).
Among all 45,000 compounds or so, about 200 (0.44%) were called active. About 7% were inconclusive and are not listed. Calls follow the shape of the dose curve; as a rule, active = well fitted activation curve with a large enough effect; inconclusive = small, poorly fitted or top-dose-only effect; inactive = no such curve, though single readings can be large or run the other way. Some of the results follow.

Test: qHTS of TDP-43 Inhibitors: NCGC Sytravon Library Screen; also: 0% is about no effect; nearly all actives have a fitted effect of over 55% in size
Conditions: yeast TDP-43 toxicity rescue, BacTiter-Glo growth, 24 h; series mostly up to 46.1 µM; growth rescue (activation): at the top concentration
How it was run: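 TDP-43-expressing yeast, pregrown in raffinose, seeded at OD600 0.02 in galactose medium with compound for 24 hr at 30 deg C. Growth read by BacTiter-Glo luminescence, so rescue of toxicity appears as activation.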

Structure (SMILES) | growth rescue (activation)
CCOc1ccccc1OCCOCCOc1c(Cl)cccc1Cl | inactive: -22.5%
O=C(Nc1cccc(S(=O)(=O)N2CCCCC2)c1)Nc1ccc(Cl)cc1Cl | inactive: 18.6%
COc1cc(NC(=O)C2(C)CCN2C(=O)C(C)C)cc(OC)c1OC (configuration not stated) | inactive: 5.61%
O=C(Nc1ccc(S(=O)(=O)N2CCOCC2)cc1)C1CC(=O)N(c2ccc(F)cc2)C1 (configuration not stated) | inactive: -8.83%
COc1cc(OC)cc(C(=O)OCC(=O)N(C)c2ccccc2)c1 | inactive: 1.23%
CCn1c(CC(=O)Nc2ccccc2F)nnc1SCC(=O)N1CCOCC1 | inactive: 18%
Cc1cccc(N=Cc2[nH]c3ccc(Br)c(Cl)c3c2O)c1 | inactive: 10%
COc1ccc(CNCCC2(O)CC(C)N(C)CC2C)cc1OC (configuration not stated) | inactive: 6.59%
CC1CCc2c(sc3nc(C(C)(C)C)nc(N4CCN(C(=O)CCl)CC4)c23)C1 (configuration not stated) | inactive: -86.2%
Cc1ccc(S(=O)(=O)Nc2ccc(-c3nnc(SCc4ccccc4Cl)o3)cc2)cc1 | inactive: 19.4%
COc1ccc(C(=O)N2CCC(C(=O)NC3CC3)CC2)cc1 | inactive: 5.82%
Cc1sc2ncnc(Nc3ccc(O)cc3)c2c1C | inactive: -29.7%
CSc1nnc(NC(=O)c2nc(S(=O)(=O)Cc3ccccc3)ncc2Cl)s1 | inactive: 3.43%
CCC(CC)c1nnc(NC(=O)CCc2ccccc2OC)s1 | inactive: 12.3%
COC(=O)[C@H](CCSC)NC(=O)Nc1ccc(OC)c(Cl)c1 | inactive: 26.8%
CCOC(=O)C1=C(C)NC(=O)NC1c1cccs1 (configuration not stated) | inactive: -2.36%
CCOc1cc(N2CCOCC2)c(OCC)cc1NC(=O)c1ccc(OC)c(S(=O)(=O)N2CCOCC2)c1 | inactive: -1.23%
COCCn1c(SCC(=O)NC2CCCC2)nc2ccccc2c1=O | inactive: 6.4%
O=C(COc1ccccc1Cl)NCCCNC(=O)c1ccncc1 | inactive: 8.24%
CCOC(=O)Nc1ccc2c(COC(=O)CNS(=O)(=O)c3cccc(Br)c3)cc(=O)oc2c1 | inactive: 17.6%
N#Cc1c(F)cccc1N1CCOCC1 | inactive: 4.78%
CCSc1ccc(-c2cc(NC=O)c3ncc(-c4cccc(C(=O)N(C)C)c4)n3c2)cc1 | inactive: 17.3%

Structure (SMILES) | growth rescue (activation)
CC(=O)Oc1ccc2oc(=O)c3c(c2c1)CCCN3C(=O)CN1CCOCC1 | inactive: 0.58%
COc1ccc2cc(C3(C)NC(=O)N(CC(=O)N4CCCCC4)C3=O)ccc2c1 (configuration not stated) | inactive: 3.5%
CCN(CC)S(=O)(=O)c1ccc(N2CCOCC2)c(NC(=O)c2ccc(C#N)cc2)c1 | inactive: -2.55%
Cc1cc(OCC(=O)NC2CCN(C)CC2)ccc1[N+](=O)[O-] | inactive: 14.7%
CCOc1ccc2nc(SCC(=O)NC3CCCCC3)[nH]c2c1 | inactive: 9.83%
Cc1nc2ccc(NC(=S)NCCCO)cc2nc1C | inactive: 13.1%
O=C1Nc2ccc([N+](=O)[O-])cc2OC1CCN1CCN(Cc2ccccc2)CC1 (configuration not stated) | inactive: -14.4%
Cc1nnc(NC(=O)CSc2nc3c(c(=O)n(C)c(=O)n3C)n2C(C)C)s1 | inactive: 4.7%
Cc1ccc(-c2nc3ccccc3o2)cc1NC(=S)NC(=O)c1cc2ccccc2o1 | inactive: -6.14%
COc1cc(C(=O)Nc2cc(OC)c(OC)c(OC)c2)ccc1OCc1c(C)noc1C | inactive: 19%
Cc1ccc(N(C(=O)CNC(=O)c2ccco2)C(C(=O)NC2CCCC2)c2ccncc2)c(C)c1 (configuration not stated) | inactive: -17.6%
Cc1ccc(C)c(-n2cc(CN3CCNC(=O)CC3)c(-c3ccccc3)n2)c1 | inactive: -5.21%
c1ccc(Cc2nnc3n2CCCCC3)cc1 | inactive: 16.3%
CC(=O)c1ccc(NC(=O)CCC(=O)OCC(=O)c2cccc([N+](=O)[O-])c2)cc1 | inactive: 9.89%
O=C(O)c1ccc(/C=N/N2CCN(Cc3cccc4ccccc34)CC2)cc1 | inactive: -7.18%
CCOc1ccc(Br)cc1S(=O)(=O)NC1=NCCCCC1 | inactive: 4.69%
C=CCN(CC=C)CCOc1ccc2ccccc2c1 | inactive: 4.14%
C(=N\N1CCN(c2ccccn2)CC1)/c1ccco1 | inactive: -1.27%
O=C(COC(=O)/C=C/c1nc2ccccc2s1)Nc1cccc(Cl)c1Cl | inactive: 7.12%
Cc1ccc2cc3cc(C(=O)NCc4ccc5c(c4)OCO5)oc3nc2c1 | inactive: 11.8%
O=C(COc1ccc(S(=O)(=O)N2CCOCC2)cc1)Nc1ccccc1Cl | inactive: 15.2%
c1ccc(SCc2nc(-c3ccncc3)n[nH]2)nc1 | inactive: -18.5%

Structure (SMILES) | growth rescue (activation)
CN(C)CCNC(=O)c1cccc(-c2cnc3c(NC=O)cc(-c4ccccc4F)cn23)c1 | inactive: -1.17%
CN(C)CCCNc1nc2cc(-c3cnn(C)c3)sc2c(=O)n1C | inactive: 12%
Cc1ccccc1C(=O)N1CCC(C(=O)NCCc2ccc(S(N)(=O)=O)cc2)CC1 | inactive: 0.675%
Cc1cc(OC(C)C(=O)NCCCN2CCOCC2)ccc1Cl (configuration not stated) | inactive: -2.36%
CCN(CC)S(=O)(=O)c1cccc(C(=O)N/N=C/c2ccc(O)c(O)c2O)c1 | inactive: -4.61%
COc1ccc(C(=O)NNC(=S)NC(=O)C(C)(C)C)cc1 | inactive: -8.15%
COc1cc2c(cc1OC)CN(C(=S)Nc1c(C)cccc1C)CC2 | inactive: 4.32%
Cc1ccc(C(=O)COC(=O)c2ccccc2NC(=O)c2ccccc2)cc1[N+](=O)[O-] | inactive: 23.5%
Cc1cccc(/C=N/NC(=O)c2cc(Br)ccc2OCc2ccccc2)n1 | inactive: 19.8%
CCN(C(=O)COC(=O)CNC(=O)c1ccc(C)s1)c1ccccc1 | inactive: -1.92%
Cc1ccccc1CC(=O)Nc1ccc2c(c1)c(=O)n(C)n2-c1ccccc1F | inactive: 7.99%
CCCSc1ncc(Cl)c(C(=O)Nc2nc3ccc(OCC)cc3s2)n1 | inactive: 14.3%
CNC(=O)C1Cc2c(-c3cccc(F)c3)ccnc2O1 (configuration not stated) | inactive: 4.69%
CC(=O)c1ccc(N2CCN(Cc3cc(=O)n4c(-c5ccccc5)csc4n3)CC2)cc1 | inactive: 20.7%
S=c1[nH]nc(C2CCCCC2)n1Cc1ccccc1 | inactive: 21%
CCCOC1CCCN(C(=O)CCc2nnc(Cc3cccc(C)c3)o2)C1 (configuration not stated) | inactive: 6.88%
Cn1c(N)c(C(=O)COc2ccc(Cl)cc2Cl)c(=O)n(C)c1=O | inactive: 11.6%
O=C(CCSc1nc(-c2ccco2)cc(C(F)(F)F)n1)N1CCN(c2ccccn2)CC1 | inactive: 4.82%
CCC(C)(C)NC(=O)C(c1cccn1C)N(C(=O)Cn1nnc2ccccc21)c1ccc(F)cc1 (configuration not stated) | inactive: 23%
O=C(NCCc1ccccc1)C(=O)N/N=C/c1ccc2c(c1)OCO2 | inactive: -27.3%
COc1ccc2o/c(=N/NC(=O)c3cccs3)c(C(N)=O)cc2c1 | inactive: 1.12%
Cc1ccc(C(=O)NCCNC(=O)c2ccco2)cc1C | inactive: 0.317%

Structure (SMILES) | growth rescue (activation)
Cc1ccc(CNc2nc(NC(C)C)nc3ccsc23)c(C)c1 | inactive: 13.4%
CNC(=S)N/N=C/c1ccc(OCC(=O)Nc2c(C)cc(C)cc2C)c(OC)c1 | inactive: -0.439%
CC(C)CC(=O)NC(=S)Nc1ccccc1C(F)(F)F | inactive: -2.56%
CC(C)OCCCNC(=O)CN1C(=O)/C(=C/c2ccccc2F)Oc2ccccc21 | inactive: -0.824%
O=C(CSc1nnc(-c2ccncc2)s1)Nc1ccc(Cl)c(C(=O)O)c1 | inactive: 13.8%
COc1ccccc1N1CCN(C(=O)CSc2nc3ccccc3nc2N2CCC(C)CC2)CC1 | inactive: -11.2%
Cc1nc2ccccc2n1CCOc1ccc([N+](=O)[O-])cc1 | inactive: 3.71%
CN(NC(=O)/C=C/C(=O)O)c1ncc(C(F)(F)F)cc1Cl | inactive: -5.44%
Cc1ccc(CN(C)c2nc(-c3cccnc3)nc3ccccc23)o1 | inactive: -14.8%
CN(C(=O)COc1ncnc2ccccc12)C1CCCCC1 | inactive: -2.82%
COc1ccc(CNCc2cccc(OC)c2OC)cc1Br | inactive: -6.33%
CCc1nc2c(OCc3ccc(C#N)cc3)cccn2c1N(C)C(=O)c1ccc(C)cc1 | inactive: 26.7%
CCOC(=O)N/N=C\c1ccc(-c2cc(Cl)ccc2Cl)o1 | inactive: 3.82%
CCC(C)N(C(=O)c1csnn1)C(C(=O)NCc1ccc(F)cc1)c1ccccc1F (configuration not stated) | inactive: 4.1%
Cc1cc2cc3c(cc2nc1SCc1ccc(C(=O)O)cc1)OCCO3 | inactive: -13.5%
O=C(NC1CC2CCCC(C1)N2C(=O)Nc1ccccc1Cl)C1CC1 (configuration not stated) | inactive: 1.17%
O=C(Nc1nnc([C@@H]2C[C@H](O)[C@@H](CO)O2)s1)c1cccc(Oc2ccccc2)c1 | inactive: 7.16%
Cc1nc2ccccc2c(=O)n1/N=C/c1cn[nH]c1-c1ccccc1 | inactive: -5.9%
CS(=O)(=O)Cc1ccc(C(=O)Nc2cccc(-c3nc4ccccc4[nH]3)c2)cc1 | inactive: 7.7%
COCCn1c(=N)c(C(=O)NCCc2ccc(OC)cc2)cc2c(=O)n3cccc(C)c3nc21 | inactive: -11.5%
Cc1ccc2[nH]cc(CCNC(=O)c3ccco3)c2c1 | inactive: 4.58%
COc1ccc(CCNC2=C(Cl)C(=O)N(Cc3ccccc3)C2=O)cc1OC | inactive: 6.85%

Structure (SMILES) | growth rescue (activation)
O=C(Nc1ccccc1C(=O)N1CCCCCC1)c1ccccc1 | inactive: 13%
CCOC(=O)C1=C(C)NC(=S)NC1c1ccco1 (configuration not stated) | inactive: -16.1%
COc1cc(/C=C/C(=O)O)ccc1S(=O)(=O)N1CCCc2ccccc21 | inactive: -6.02%
O=C(CSc1nc(C2CC2)nc2ccccc12)N1CCCCC1 | inactive: -1.74%
COc1ccccc1NC(=S)N(Cc1ccc(C(=O)O)cc1)Cc1ccc(OC)c(OC)c1 | inactive: 2.58%
S=C(NCC(c1ccco1)N1CCCC1)Nc1ccccc1 (configuration not stated) | inactive: 12.7%
C/C(=N\NC(=O)c1cc(Br)ccc1O)c1cccs1 | inactive: -10.4%
COC(=O)c1cccc(N(C(=O)CNC(=O)c2cccs2)C(C(=O)NCC2CCCO2)c2ccc(OC)c(OC)c2)c1 (configuration not stated) | inactive: 3.36%
CC1CC(NC(=O)N(C)C)N(C)C(=O)N1 (configuration not stated) | inactive: 1.77%
CCCc1nc2c(c(=O)c3ccccc3n2C)c(=O)n1-c1ccc(F)cc1 | inactive: 1.1%
Cc1ccc(C(O)(C(=O)NN(C(=O)c2ccccc2)c2ccccc2)c2ccc(C)cc2)cc1 | inactive: 25.1%
COc1cccc(N(CC(=O)NCc2ccco2)C(=O)CCC(=O)Nc2nccs2)c1 | inactive: -8.7%
COc1cc(OC)cc(C(=O)NCCNC(=O)c2ccccn2)c1 | inactive: -11.7%
CCCC1(c2ccccc2)NC(=O)N(CCN2C(=O)c3ccccc3C2=O)C1=O (configuration not stated) | inactive: 24.7%
COc1cccc(NC(=O)Cc2nc(-c3ccccc3)sc2-c2ccc(C)cc2)c1 | inactive: 3.71%
O=C(c1ccccc1)N1CCN(C(=O)c2nn3c(C(F)(F)F)cc(-c4ccccc4)nc3c2Br)CC1 | inactive: 4.88%
CCc1ccc(C(O)c2ncc(-c3ccccc3F)[nH]2)cc1 (configuration not stated) | inactive: 7.68%
O=C1/C(=C/c2ccsc2)N2CCC1CC2 | inactive: 3.09%
Cc1cccc(OCc2nnc(SCC(=O)N3CCCC3)o2)c1 | inactive: -5.8%
